The labels stand for the following.
B1: CPEB3 Ribozyme (parent)
chain: UAACAGGGGGCCACAGCAGAAGCGUUCACGUCGCAGCCCCUGUCAGAUUCUGGUGAAUCUGCGAAUUCUGCUGUAUAUCUC

The source gives no read counts; variants with many changes may rest on few reads.

This data set covers variants of B1. The data set can be described thus: self-cleavage, relative activity (ratio to wild type); higher = more cleavage; in vitro, sequencing. In outline:
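For each CPEB3 ribozyme variant, relative activity is its cleaved/total read fraction divided by the unmutated ribozyme's. Barcoded error-prone PCR libraries were transcribed by T7 RNA polymerase (5 hours, 37°C) and held in DNase I for 15 min before an EDTA stop, with cleavage occurring throughout. Template-switching reverse transcription and Illumina sequencing were used to read the RNAs. A 5-read minimum applied, and results are the mean of three batches.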
With UAACAGGGGGCCACAGCAGAAGCGUCCACGUCGCAGCCCCUGUCAGAUUCUGGUGAAUCUGAGAAUUCUGCCGUAUAUCUC [U26C C62A U72C], the self-cleavage was 0.13.

Consider UAACAGGGGGCCACAGCAGAAGCGUCCACGUCGCUGCCCCUGUCAGAUUCUGGUGAUUCUGCGAAUUCUGCUGCAUAUCUC [U26C A35U A57U U74C], for which the self-cleavage was 0.21.

As for UAACAGGGGGCCACAGCAGAAGCGUCCACGUCACAGCCCCUGUCAGAUCCUGGUGAAUCUGCGAAUUCUGCUGUAUAUCUC [U26C G33A U49C], the self-cleavage was 0.19.

For UAACAGGGGGCCACAGCAGAAGCGUCCACGACGCAGCCCCUGUCAGAUUCUGGUGAAUCUGCGAAUUCUGCUAUAUAUCUC [U26C U31A G73A], the self-cleavage was found to be 0.48.

Take UAACAGGGGGCCACAGCAGAAGCGUCCACGUCACAGCCCUAGUCGGAUUCUGGUGAAUCUGCGAAUUCUGCUGUAUAUCUC [U26C G33A C40U U41A A45G]: the self-cleavage worked out at 0.19.

In the case of UAACAGGGGGCCACAGCAGAAGCGUCCACGUCGCAGCCUAUGUCAGAUUCUGGUGAAUCUGCGGAUUCAGCUGUAUAUCUC [U26C C39U C40A A64G U69A], the self-cleavage amounted to 0.08.

As for UAACAGGGGGCCACAGCAGAAGCGUCCACGUCGCAGCCCCUGUCAGGUCCUGGUGAAUCUGCGAAUUCUGCUGUAUAUCUC [U26C A47G U49C], the self-cleavage came to 0.17.

For the variant UAACAGGGGGCCACAGCAGAAGCGUCCACGUCGCAGCCCCUGUCAGAUUCUGGUGGAUCUGAGAAUUCGGCUGUAUAUCUC [U26C A56G C62A U69G], the self-cleavage turned out to be 0.08.

As for UAACAGGGGGCCACAGCAGAAGCGUCCAUGUCGCAGCCCCUGUCAGAUACUGGUGAAUCUGCGAAUUCUGCUGUAUAUCUC [U26C C29U U49A], the self-cleavage was 0.37.

In the case of UAACAGGGGGCCACAGCAGAAGCGUCCACGUCGCUGUCCCUGUCAGAUUCUGGUGAAUCUGCGAAUUCUGCUGUAUAUCUC [U26C A35U C37U], the self-cleavage stood at 0.29.

As for UAACAGGGGGCCACAGCAGAAGCGUCCACGUUGCAGCACCUGUCAGAUUCUGGUGAAUCUGCGAAUACUGCUGUAUAUCUC [U26C C32U C38A U67A], the self-cleavage amounted to 0.13.

Take UAACAGGGGGCCACAGCAGAAGCGUCCACGUCGCAGCCCCUGUCGGAUUCUGGUGAUUCUGCGAAUUGUGCUGUAUAUCUC [U26C A45G A57U C68G]: the self-cleavage was 0.11.

As for UAACAGGGGGCCACAGCAGAAGCGUCCACGUCGCAGCCCCUGUCAGAUUCUGCUGAAUCCGCGAAUUCUGCUGUAAAUCUC [U26C G53C U60C U76A], the self-cleavage worked out at 0.28.

Consider UAACAGGGGGCCACAGCAGAAGCGUCCACGUCGCAGCCCCUGUCAGGUUCUGGUGAGUCUGCGAAUUCCGCUGUAUAUCUC [U26C A47G A57G U69C], for which the self-cleavage worked out at 0.12.

As for UAACAGGGGGCCACAGCAGAAGCGUCCACGUCGCAGUCCCUGCCUGACUCGGGUGAAUCUGCGAAUUCUGCUGUAUAUCUC [U26C C37U U43C A45U U48C U51G], the self-cleavage came out at 0.05.

On to UAACAGGGGGCCACAGCAGAAGCGUCCACGUCGCAGCCCCUGUCUGAGUCUGGUGAAUCUGCGAAUUCUGCCGUAUAUCUC [U26C A45U U48G U72C], for which the self-cleavage worked out at 0.15.

Regarding UAACAGGGGGCCACAGCAGAAGCGUCUACGUCGCAGCCCCUGUCAGAUUCUGGUGAAUCUGCGAAUUCUGCGGUAUAUCUC [U26C C27U U72G], the self-cleavage came out at 0.16.

With UAACAGGGGGCCACAGCAGAAGCGUCCACGACGCAGCCCCUGUCAGUUUCUGGCGAAUCUGCGAAUUCUGCCGUAAAUCUC [U26C U31A A47U U54C U72C U76A], the self-cleavage was determined as 0.1.

With UAACAGGGGGCCACAGCAGAAGCGUCCACGUCGCAGCCCCUGUCAGAUUCUGGUGAAUCUGCGCAUUCUGCUGUAUAUCCC [U26C A64C U80C], the self-cleavage worked out at 0.63.

Take UAACAGGGGGCCACAGCAGAAGCGUCCACGUCGCAGCCCCUGUCAGAUUCUGGUGAAUCUGUGAGUUCUGCUGUAUAUCUC [U26C C62U A65G]: the self-cleavage came to 0.28.

As for UAACAGGGGGCCACAGCAGAAGCGUCCACGUCGCAGCCCCUUUCAGGUUCUGGUGGAUCUGCGAAUUCUGCCGUAGAUCUC [U26C G42U A47G A56G U72C U76G], the self-cleavage came out at 0.04.

With UAACAGGGGGCCACAGCAGAAGCGUCCACGUCGCAGCCCCUGUCAGAUUCUGGUGAGUCUGCGAAUUCUGCUGUAUACCUC [U26C A57G U78C], the self-cleavage came out at 0.5.

Regarding UAACAGGGGGCCACAGCAGAAGCGUCCACGUCGCAGUCCCUGUCAGAUCCUGGUGAAUCUGCGAAUUCUGCUGUAUAUCUC [U26C C37U U49C], the self-cleavage came out at 0.2.

As for UAACAGGGGGCCACAGCAGAAGCGUCCACCUCGCAGCCCCUGUCAGAUUCUGGUGAAUCUGCGAAUUCUGCUGUUUAUCUC [U26C G30C A75U], the self-cleavage was 0.43.

With UAACAGGGGGCCACAGCAGAAGCGUCCACGUCGCAACCCCUGUCAGAUUCUGGUGAAUCUGCGAAUUCUGCUGUCUAUCUC [U26C G36A A75C], the self-cleavage was determined as 0.18.

With UAACAGGGGGCCACAGCAGAAGCGUCCACGUUGCAGCCCCCGUCAGAUUCUGGUGAAUCUGCGAAUUCUGCUGUAUAUCUC [U26C C32U U41C], the self-cleavage worked out at 0.52.

UAACAGGGGGCCACAGCAGAAGCGUCCACGUCGCAGCCCCUGUCAGAUUCUGGUGAGUAUGCGAAUUCUGCCGUAUAUCUC [U26C A57G C59A U72C]: the self-cleavage was 0.12.

On to UAACAGGGGGCCACAGCAGAAGCGUCCACGUUGCAGCCCCUGUCAGAUUCUGGUGAAUCUGCGAAUCCUGCUGUAUAUCUC [U26C C32U U67C], for which the self-cleavage came out at 0.11.

As to UAACAGGGGGCCACAGCAGAAGCGUCCACGUCGCUGCCCCUCUCAGAUUCCGUUGAAGCUGCGAAUUCUGCUGUAUAUCUC [U26C A35U G42C U51C G53U U58G], the self-cleavage was 0.07.

Turning to UAACAGGGGGCCACAGCAGAAGCGUCCACGUCGCAGCCCCUGUCAGAUUCUGGUAAAUCUGCGAAUUCUGCAGAAUAUCUC [U26C G55A U72A U74A], the self-cleavage was determined as 0.26.

In the case of UAACAGGGGGCCACAGCAGAAGCGUCCACGUUGCAGCCCCUGUCAGUUUCUGGUGAAUCUGCGAAUUCUGCUGUGUAUCUC [U26C C32U A47U A75G], the self-cleavage was 0.12.

For UAACAGGGGGCCACAGCAGAAGCGUCCACGUCGAAGCCCCUGUCAGAUUCUGGUGAAUCUGCGAAUUCAGCUGUAUAUCUC [U26C C34A U69A], the self-cleavage amounted to 0.16.

Take UAACAGGGGGCCACAGCAGAAGCGUCCACGUCGCUGCCCCUGUCAGAUUCCGGUGAAUCUGCGAAUUCUGCUGUAUAUCUC [U26C A35U U51C]: the self-cleavage is 0.17.

Regarding UAACAGGGGGCCACAGCAGAAGCGUCCACGUCGCAGCCCCUGUCAGAUUCUGGUAAAUCUGCAAAUUCUGCUGUAUAUCUC [U26C G55A G63A], the self-cleavage came out at 0.2.

Values taken from the RNAGym collection of RNA variant scans (doi:10.1093/nar/gkz1192).
